In publication PMC4336329 (PLoS ONE, 2015):
Among all 310,000 compounds or so, about 2,200 (0.71%) showed an effect of 50% or more. Effects have a minus sign here. The list shows a part of the results.

The compounds below were run against human ether-à-go-go-related gene (hERG) potassium channel (human, UniProt Q12809) (assay: primary screen, population patch clamp on CHO cells stably expressing hERG).
Chain of human ether-à-go-go-related gene (hERG) potassium channel (Q12809 whole entry, looked up): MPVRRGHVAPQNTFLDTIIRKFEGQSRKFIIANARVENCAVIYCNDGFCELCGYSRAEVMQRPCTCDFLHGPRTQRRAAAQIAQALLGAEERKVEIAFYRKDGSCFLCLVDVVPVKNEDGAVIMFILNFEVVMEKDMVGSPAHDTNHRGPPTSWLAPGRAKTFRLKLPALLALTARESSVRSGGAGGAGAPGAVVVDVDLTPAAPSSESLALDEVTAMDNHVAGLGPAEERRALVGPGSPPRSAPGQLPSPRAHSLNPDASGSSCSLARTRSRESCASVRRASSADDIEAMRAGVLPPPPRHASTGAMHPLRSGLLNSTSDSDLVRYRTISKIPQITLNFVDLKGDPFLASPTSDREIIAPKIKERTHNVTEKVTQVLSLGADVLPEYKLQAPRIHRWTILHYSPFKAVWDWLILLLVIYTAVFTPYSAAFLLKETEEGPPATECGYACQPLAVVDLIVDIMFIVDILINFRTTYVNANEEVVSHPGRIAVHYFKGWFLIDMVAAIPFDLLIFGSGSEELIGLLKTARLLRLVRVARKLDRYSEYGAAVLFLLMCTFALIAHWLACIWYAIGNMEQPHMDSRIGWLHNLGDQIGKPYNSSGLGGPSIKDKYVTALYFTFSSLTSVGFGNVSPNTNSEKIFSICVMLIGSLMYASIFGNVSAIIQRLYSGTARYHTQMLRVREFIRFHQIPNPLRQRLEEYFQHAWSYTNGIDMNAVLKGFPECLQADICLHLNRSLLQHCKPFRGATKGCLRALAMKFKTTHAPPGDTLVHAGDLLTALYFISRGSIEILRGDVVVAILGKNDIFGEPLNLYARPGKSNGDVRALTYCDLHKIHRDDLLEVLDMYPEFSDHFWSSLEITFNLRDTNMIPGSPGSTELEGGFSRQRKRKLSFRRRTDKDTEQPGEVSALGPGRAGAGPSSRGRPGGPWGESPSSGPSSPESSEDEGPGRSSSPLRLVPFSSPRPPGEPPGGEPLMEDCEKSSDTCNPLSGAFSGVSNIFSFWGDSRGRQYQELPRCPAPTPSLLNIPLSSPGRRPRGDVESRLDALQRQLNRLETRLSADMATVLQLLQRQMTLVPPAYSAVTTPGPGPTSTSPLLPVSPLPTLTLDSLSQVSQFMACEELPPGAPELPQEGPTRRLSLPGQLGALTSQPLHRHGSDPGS

SMILES	hERG current change (%, negative = inhibition) at 1uM [%]
O=C(COC(=O)/C=C/c1ccco1)Nc1ccc(F)cc1Cl	16.2
COc1ccc2[n-]c(S(=O)Cc3ncc(C)c(OC)c3C)nc2c1.COc1ccc2[n-]c(S(=O)Cc3ncc(C)c(OC)c3C)nc2c1.[Mg+2] (stereo not drawn) [49665950]	16.3
Cc1nc2nc(SCC(=O)Nc3cccc(F)c3)[nH]c2cc1Br	20.4
COCCNC(=O)CSc1cc(=O)n(C)c2cc(Cl)ccc12	9.17
COc1cc(OC)cc(-n2nc(C(=O)N3CCC4(CC3)OCCO4)c3ccccc3c2=O)c1	8.66
COc1ccc(Br)cc1C1N2CC3(C)CN1CC(C)(C2)C3=O (stereo not drawn)	8.45
CCc1nnc(NC(=O)c2ccc(S(=O)(=O)N3CCCCCC3)cc2)s1	9.63
O=C(CN1CCN(S(=O)(=O)c2ccc3ccccc3c2)CC1)Nc1ccc2c(c1)CCC2	16.5
C=CCN(c1ccc(F)cc1)S(=O)(=O)c1cc(C(=O)NC2CCC(O)CC2)ccc1Cl (stereo not drawn)	-1.9
Cc1ccc(-c2cc(C(=O)[O-])c3cc(Br)ccc3n2)s1.[K+]	13.3
COc1ccc(CCN(C)Cc2ccc(F)cc2F)cc1OC	-2.08
CCOC(=O)c1ccc(NC(=S)N2CCCC2c2ccc(OC)c(OC)c2)cc1 (stereo not drawn)	10.6
CCN1CCN(CCCNC(=O)C(=O)c2c(C)[nH]c3ccccc23)CC1	6.58
Cc1cc2cc(CNC(=O)Nc3ccccc3)ccc2[nH]1	11.4
Cc1[nH]n(-c2ccc(F)cc2)c(=O)c1C=Nc1ccc(S(=O)(=O)N(C)C)cc1	10.5
Nn1c(C2COc3ccccc3O2)n[nH]c1=S (stereo not drawn)	9.56
Cc1cc(C)n(C2=NS(=O)(=O)c3ccccc32)n1	11.8
COC(=O)c1c(NC(=O)c2cnccn2)sc2c1CCC2	24.1
COCCCNC(=O)c1cn(-c2cccc(OC)c2)c(=O)c2ccccc12	17.4
O=C(Nc1ccc(-c2noc(COc3ccccc3Cl)n2)cc1)c1ccco1	5.38
Cc1cn(S(=O)(=O)c2ccc(Br)c3ccccc23)cn1	9.99
CC(=O)Nc1ccc(NC(=O)c2ccc3c(c2)C(=O)N(c2ccccc2C)C3=O)cc1	7.63

SMILES	hERG current change (%, negative = inhibition) at 1uM [%]
O=C1C(Cc2ccccc2)SC(=Nc2ccccc2)N1c1ccccc1 (stereo not drawn)	16.2
CC(=O)O[C@@H]1C[C@H]2C(C)(C)C(=O)C=C[C@]2(C)[C@H]2CC[C@@]3(C)[C@H](c4ccoc4)OC(=O)[C@H]4O[C@]43[C@@]21C	1.89
CC(=O)Nc1ccc(NS(=O)(=O)c2ccc(OC(C)C(=O)N3CCOCC3)cc2)cc1 (stereo not drawn)	0.684
COc1cccc(N2[C@@H](CC(C)=O)c3cc(C(F)(F)F)ccc3S2(=O)=O)c1	11.6
Cc1ccccc1-c1cc(C(=O)n2cccn2)c2cc(Cl)ccc2n1	10.5
Cc1ccc(CNCCCSc2ncccn2)cc1	-0.37
Cc1cc(-c2ccc(/C=N/n3cnnc3)o2)c(C)c([N+](=O)[O-])c1	12
Cc1c(Cl)cccc1NC(=O)CCCn1cnc([N+](=O)[O-])n1	9.67
CCN(CC)C(=O)COc1cc(C)cc2oc(=O)cc(-c3ccccc3)c12	-8.08
CS(=O)(=O)N(CC(=O)NCC1CCCO1)c1cccc(Cl)c1 (stereo not drawn)	16.2
Cc1ccc(/C=N/NC(=O)c2nc3nc(C)cc(C)n3n2)cc1	10.6
O=C(Nc1ccn(Cc2cccc3ccccc23)n1)c1cccnc1	8.02
Cc1nc2nc[nH]n2c(=O)c1CC(=O)O	7.68
COc1cc(NC(=O)Cn2cnc(S(=O)(=O)N3CCCC3)c2)cc(OC)c1OC	12.4
Cc1cccc(C(=O)NCC(c2ccco2)N2CCc3ccccc32)c1 (stereo not drawn)	0.922
COc1cc(NC(=O)C2CC(=O)NC3=C2C(=O)CC(C)(C)C3)c(OC)cc1Cl (stereo not drawn)	4.42
COCCNC(=O)C(=O)NCC1OCCN1S(=O)(=O)c1ccc(F)cc1 (stereo not drawn)	10.8
C/C(CC(=O)Nc1cccc(Cl)c1)=N\NC(=O)Cc1ccc(Cl)cc1	0.952
O=c1c(Cl)c(N2CCCCC2)cnn1-c1nc2ccccc2[nH]1	-12.3
COc1cc(Br)ccc1NC(=O)c1ccccc1-c1ccccc1C(=O)O	19.3
Cc1cc(Cl)ccc1OCCCC(=O)OCC(N)=O	1.7
CCOc1cc(CNn2cnnc2)cc(Cl)c1OCC(=O)NC(C)(C)C	7.82

SMILES	hERG current change (%, negative = inhibition) at 1uM [%]
Cc1ccc(S(=O)(=O)N(C)c2ccc(C(=O)NCC3(N(C)C)CCCCC3)cc2)cc1	-43.9
COc1ccccc1C(=O)Nc1ccon1	-0.0061
C/C(=N\NC(=O)c1nnn(-c2nonc2N)c1C(C)C)c1cc(C)sc1C	15.7
CC(=O)COc1c(-c2ccco2)oc2ccccc2c1=O	11.6
O=C(CN(CC1CCCO1)S(=O)(=O)c1ccc(S(=O)(=O)NC2CC2)cc1)Nc1ccccc1 (stereo not drawn)	-2.75
CSc1ccccc1OCc1cc(C(=O)N2CCN(c3ncccn3)CC2)no1	11.7
Cc1cccc(Nc2ncnc3c2cnn3C)c1	3.12
COCCn1c(-c2ccc(Cl)cc2Cl)nc2c(c(=O)c3ccccc3n2C)c1=O	13.6
CCO[C@H]1OC(C(=O)O)=C[C@@H](c2ccc3c(c2)OCO3)[C@@H]1CCCO	15.8
CS(=O)(=O)Nc1ccc(C(=O)NCCSCc2ccco2)cc1	-19.4
Fc1ccc(N2CCN(Cc3nnc(-c4ccccc4)o3)CC2)cc1	4.54
COC(=O)c1ccc(CNC(=O)c2coc3ccccc3c2=O)cc1	10.5
O=C(N/N=C/c1c(O)ccc2ccccc12)c1cccnc1	12.6
Cc1nc(NC(=O)CCN2C(=O)C3CC=CCC3C2=O)sc1C (stereo not drawn)	4.96
Cc1ccc(NC(=S)Nc2c(C)n(C)n(-c3ccccc3)c2=O)cc1	1.01
CCN(C(=O)c1cc2c(=O)n3ccccc3nc2n1C)C1CCCCC1	11.5
O=C(O)CCc1ccc(-c2ccc(Cl)cc2)n1CC(=O)O	13.9
O=C(Nn1cnnc1)c1cc(-c2ccccn2)nc2ccccc12	5.15
COc1ccc(-c2csc3nc(-c4cccnc4)nc(N4CCC(C(N)=O)CC4)c23)cc1OC	1.65
Cc1c(S(=O)(=O)NC2CCCCC2)c(=O)n(C)c(=O)n1C	3.74
CSc1ccc(CN2CCN(C(=O)COc3ccc(C)cc3)CC2)cc1.O=C(O)C(=O)O	-19.3
CC(C)NC(=O)Cn1c(SCC(=O)c2ccc(F)cc2)nc2ccccc21	20.2

SMILES	hERG current change (%, negative = inhibition) at 1uM [%]
O=C1CC(N2CCC(O)(c3ccc(Cl)cc3)CC2)C(=O)N1 (stereo not drawn)	2.43
CC(=O)c1cccc(N=Nc2c(C)[nH]c3ccccc23)c1	21.1
CCCCCC1CC(CC(=O)NC(=S)Nc2ccccc2Cl)C(=O)O1 (stereo not drawn)	3.16
COc1cc2c(cc1OC)C1(NCC2)C(=O)Nc2ccccc21 (stereo not drawn)	3.44
Cc1ccc(NC(=O)Nc2ccc(F)c(Cl)c2)cc1	7.76
Cc1ccc(S(=O)(=O)NC(CC(C)C)C(=O)Nc2nccs2)cc1 (stereo not drawn)	13
CNC(=O)COc1ncnc2scc(-c3ccc(F)cc3)c12	13.9
O=C(CN1C(=O)CCOc2ccccc21)Nc1cccc(S(=O)(=O)N2CCOCC2)c1	2.46
CCc1c(C)nc(SCC(=O)N2CCCCC2CC)[nH]c1=O (stereo not drawn)	8.43
Cc1[nH]c(=O)[nH]c(=O)c1/C=C/C(=O)O	4.57
Cc1ccccc1C(=O)N1CCC(C(=O)Nc2ccc3c(c2)OCCO3)CC1	12
Cc1cnc(SCc2ccc(Cl)cc2Cl)[nH]c1=O	12.7
O=C(Nc1cccc(O)c1)c1cc(-c2ccccc2Cl)on1	18
CS(=O)(=O)N1CCCC(C(=O)c2cccc(Cl)c2)C1 (stereo not drawn)	22.1
COc1cc2c(cc1OC)CN(CC(=O)Nc1cccc(C)c1)CC2	10.6
COc1ccc(C(=O)C2CCCN(Cc3cc(C)c(O)c(C)c3)C2)c(OC)c1 (stereo not drawn)	-0.499
NCCNC(=O)Cc1cccc(NC(=O)Cc2ccc(Nc3ncnc4c3ncn4[C@@H]3O[C@H](CO)[C@@H](O)[C@H]3O)cc2)c1	14.4
Cc1ccc(S(=O)(=O)Nc2ccc(N3CCOCC3)cc2)cc1C	9.57
O=C(Nc1cccc(-c2nnc(-c3ccco3)o2)c1)c1ccccc1	-5.05
O=C(Nc1cc2c3c(c1)CC(=O)N3CCC2)c1ccc(F)cc1	3.93
COc1ccc(C(C)(C)C)cc1S(=O)(=O)n1ccnc1C	13.8
